# The supplement of paper PMC10338343
# ± gives the standard deviation. Over roughly 5,500 sequences, “pre-steady-state target cleavage rate” has its median near 0.1; the highest 2% begin near 0.64. The entries are a selection whose mix differs from that of the whole data set.
# System: MIWI (PIWIL1) piRISC loaded with piRNA #2 (30 nt)
# Assay: pre-steady-state target cleavage rate (min^-1); MIWI and MILI are mouse PIWI proteins and EfPiwi is from a freshwater sponge; tags in brackets are library labels; higher = faster piRNA-guided slicing of the target
# Settings: guide: piRNA #2 5'p-UUAGGUAACCCAGUAGAUCCAGAGGAAUUC; auxiliary factor: 500 nM mouse GTSF1
# Method: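 Cleave-'n-Seq: a library of target RNAs (target site embedded in constant flanks, ACAGCATTCCGCGTTAGTGATATCCG... 5' flank; DNA-blocked outside the site) at 0.1 nM was incubated with 1 nM active mouse MILI or MIWI piRISC (synthetic 5'-monophosphorylated piRNA guide) with or without 500 nM mouse GTSF1 at 33 °C for 1 min to 16 h. Uncleaved targets were sequenced and normalised to non-target controls, and the pooled three trials were fitted to a burst-and-steady-state model to give the pre-steady-state cleavage rate (min^-1; k3 is constrained to at most 1e-4). Sequence is the target site only; target names encode pairing extent (gX:gY) and contiguous / 1-mismatch / 2-mismatch / bulge geometry. Fits with R² ≤ 0 are excluded.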
row,Sequence,pre-steady-state target cleavage rate
1,CUUAAGCUCUGGAUUUACUGGGUUACCUAA,0.167 ± 0.028
2,CUUUUCCUCAGGAUCUACUGGGAUACCUAA,0.381 ± 0.044
3,CUAUUCCUCUGGAUCCUACUGGGUUACCUAA,0.188 ± 0.039
4,CUUUUCCUCUGGAUCUAGUGGGUUACCAAA,0.0844 ± 0.011
5,CUAUUCCUCUGGAACUACUGGGUAACCUAA,0.178 ± 0.028
6,GUAUUCCUCUGGAUGUACUGGGUUACCUAA,0.0788 ± 0.031
7,CUUUUCCUCUGGAUCUACUGGGAUUACCUAA,0.153 ± 0.029
8,CAUUUCCUCUGGAUCUACUGCGUUACCUAA,0.519 ± 0.064
9,CUUAAGGAGUGGUUCUACUGGGUUAGCUAA,0.00727 ± 0.0032
10,CUUAAGGUCUGGAUCUACUCGGUUACCUUA,0.0171 ± 0.011
11,GAAUUCCUCUGGAUCUACUAGGUUACCUAA,0.293 ± 0.056
12,CUAUACCUCUGGAUCUACUGGGUUACCAAA,0.548 ± 0.067
13,CUAUUCCUCUGGAUCUACUGGGUAUGCUAA,0.0126 ± 0.0045
14,CUUAAGCUCUGGAUCUACUGGGUUGCCUAA,0.0696 ± 0.0075
15,CUUAAGGUCUGGAUCUACUGGCUUUCCUAA,0.0117 ± 0.0048
16,CUUAAGGAGACCUACUACUGUGUUACCUAA,0.00865 ± 0.0031
17,CAUUUCCUCUGGAUCUACUGGCUUACCUAA,0.106 ± 0.02
18,CAAUUCGUCUGGAUCUACUGGGUAACCUAA,0.187 ± 0.041
19,CUUAAGCACUGCAUCUACUGGGUUACCUAA,0.243 ± 0.022
20,CUUUUCCUCUGGAUCAUCUGGGUUACCUAA,0.259 ± 0.027
21,CUUAACCUCUGGAUCUACUGGGAAACCUAA,0.0935 ± 0.015
22,CUAUUCCACUGGAACUACUGGGUUACCUAA,0.275 ± 0.032
23,CUAUUCCUCUGCAUCUACUGCGUUACCUAA,0.654 ± 0.047

row,Sequence,pre-steady-state target cleavage rate
1,CUAUUCCUCUCGAUCUUCUGGGUUACCUAA,0.803 ± 0.07
2,CUUAACCUCUGGAUCUACUGGGUAAGCUAA,0.05 ± 0.0099
3,CUUAAGGAGUCGGAUCUACUGGGUUACCUAA,0.0344 ± 0.023
4,CUUAAGGAGACCUAGAUCUGGGAUACCUAA,< 0.0001
5,CUAUUCCUAUGGAUCUACUGGGUUACCUAA,0.499 ± 0.044
6,CUUAUCCUCUGGAUCUACUCGCUUACCUAA,0.00398 ± 0.0038
7,CUUAAGGUCUGGAUCUACUGUGUUACCUAA,0.312 ± 0.071
8,GAAUUCCUCUGGAUCAACUGGGUAACCUAA,0.137 ± 0.03
9,CUAUUCCUCUGGAUCUACACCGUUACCUAA,0.0916 ± 0.011
10,CUAUUCCUCUGGAUCUAGUGGGUUUCCUAA,0.0884 ± 0.017
11,CUUAACCUCUGGAUCUACUGGGUUACCCAA,0.0278 ± 0.0071
12,GAAUUCCUCACCAUCUACUGGGUUACCUAA,0.455 ± 0.051
13,GAAUACCUCUGGAUCUACUGGGUUACCAAA,0.344 ± 0.053
14,GAAUUCUUCUGGAUCUACUGGGUUACCUAA,0.38 ± 0.05
15,CUUAUCCUCUGGAUUACUGGGUUACCUAA,0.481 ± 0.04
16,CUUAACCUCUAGAUCUACUGGGUUACCUAA,0.472 ± 0.035
17,CUUUUCCUCUGGAUGUACUGGCUUACCUAA,0.0998 ± 0.021
18,CUUAAGGAGUGGAUCUCCUGGGUUACCUAA,0.0118 ± 0.005
19,GAAUUACCUCUGGAUCUACUGGGUUACCUAA,0.193 ± 0.054
20,CUUUUCCUCUGGAUGCUACUGGGUUACCUAA,0.396 ± 0.043
21,CUUUUCCUCUGGAUCUACUUGGUUACCUAA,0.00606 ± 0.0042
22,CUUAAGGACAGGAACUACUGGGUUACCUAA,0.0387 ± 0.032
23,GAAUUCCUCUCCUUCUACUGGGUUACCUAA,0.781 ± 0.06
